Biological target: T1, wild-type TRAIL (aa 114-281), human soluble TRAIL (human, UniProt P50591 114-281)
T1 construct: homotrimer; also called Wt TRAIL; wt
Assay: SPR, Biacore 3000, 37 C, receptor on chip, 1:1 Langmuir global fit, preliminary apparent Kd
Experimental: Binding of the purified mutants was assessed in real time using surface plasmon resonance on a Biacore 3000 with a sensor chip as described above. […] Measurements performed at 37° C. to allow increased $koff$ and dissociation was monitored for 20 min. Measured $kon$ and $koff$ rates were used to calculate apparent K_d values for the mutants for the respective receptors. A global fit procedure was used and a 1:1 Langmuir interaction model.

Kd: 0.4 nM
B1: DR5 (TRAIL-R2) Fc, recombinant receptor from R&D Systems (Fc fusion)
chain: not shown
notes: also called soluble TRAIL-R2 Fc; immobilized TRAIL-R2 Fc; not shown: Fc part of the bought Fc fusion

From US7994281 (EUROPEAN MOLECULAR BIOLOGY LABORATORY, dated 2011)
